The campaign covered roughly 71,000 compounds. About 1,800 (2.5%) were called active. The shares of active, inactive and inconclusive entries below differ from those in the screen. Calls come from the whole dose curve; as a rule, active = well fitted activation curve with a large enough effect in the signal ratio, with a control signal flat (not every such curve was filed as active); inconclusive = small, poorly fitted or top-dose-only effect, or effect the other way, or a change in a side signal; inactive = flat fitted curve, though single readings scatter; the % refers to the signal ratio. Where the call is inconclusive, the potency comes from a doubtful curve fit.
Test: Cell signaling CRE-BLA (Fsk stim); for activity change, negative = inhibition: % of control where 0% means no effect
Conditions: CHO CRE-bla reporter (cAMP response element driving beta-lactamase), forskolin EC10, beta-lactamase ratio; activity change, negative = inhibition: at 38.2 µM (top of the series) unless noted
Procedure, shortened: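 Modulation of forskolin-driven signalling is measured in CHO cells carrying a CRE-controlled beta-lactamase reporter. Cells are stimulated with EC10 NKH 477 in the presence of titrated compound for 3 h at 37 °C, then loaded with CCF4 for 2 h at room temperature.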
With `Brc1ccccc1-c1nnc2sc(-c3ccc4c(c3)OCCO4)nn12` the Potency was inconclusive: 25.1 µM [rising, single point]. With `O=c1c2cnn(-c3ccc(F)cc3)c2ncn1Cc1cccnc1` the activity change, negative = inhibition was inconclusive: 25.2%. With `CS(=O)(=O)Nc1cccc(-c2nc(Nc3ccc(F)cc3)c3ccccc3n2)c1` the activity change, negative = inhibition was inconclusive: -23.7%. With `COC(=O)c1ccc(C)c(NS(=O)(=O)c2ccc3c(c2)OCCO3)c1` the Potency was inconclusive: 0.316 µM [rising, partial curve]. In the case of `CCOc1ccccc1-c1nc(-c2ccc(NC(=O)Cc3ccccc3OC)cc2)no1`, the “activity change, negative = inhibition” value is reported as inactive: 18.8%. For `O=C(Nc1nnc(C2CCCC2)s1)C1CCC1`, the “activity change, negative = inhibition” value was inactive: 9.69%. With `CN(C)CCNC(=O)c1ccc2c(c1)N(Cc1ccc(F)cc1)CCS2` the “activity change, negative = inhibition” value was inactive: -6.73%. In the case of `CCN1C(=O)CC(C(=O)Nc2ccc(F)cc2)SC1=Nc1cccc(OC)c1` (configuration not stated), the activity change, negative = inhibition is reported as inconclusive: 16%. With `Cc1cc(N2CCOCC2)nc2cc(O)ccc12` the activity change, negative = inhibition was inconclusive: 18.9%. With `CC1(C)CC(=O)c2sc(NC(=O)CN3CCOCC3)nc2C1` the activity change, negative = inhibition was inconclusive: -1.71%. With `O=C(Nn1c(-c2ccccc2)nc2ccccc2c1=O)C1CCC1` the “activity change, negative = inhibition” value was inactive: -4.45%. In the case of `Cc1ncc(CO)c2cc(S(=O)(=O)c3ccc(F)cc3)c(=O)oc12`, the “activity change, negative = inhibition” value is reported as inactive: -5.85%. For `O=C(NCCC1=CCCCC1)C1CCCN(c2nc3ccccc3o2)C1` (configuration not stated), the “activity change, negative = inhibition” value was inactive: -13.7%. In the case of `CCOC(=O)c1oc2ccc(S(=O)(=O)N3CCC(C)CC3)cc2c1C`, the activity change, negative = inhibition is reported as inconclusive: 16.9%. For `CCn1c(=O)n(CC(=O)N(C)Cc2ccccc2)c(=O)c2ccccc21`, the “activity change, negative = inhibition” value was inactive: 2.08%. In the case of `COC(=O)COc1ccc(S(=O)(=O)NCCC2=CCCCC2)cc1C`, the “activity change, negative = inhibition” value is reported as inactive: 5.59%. In the case of `CC(C)(C)C1CCc2onc(C(=O)N3CCOCC3)c2C1` (configuration not stated), the activity change, negative = inhibition is reported as inconclusive: 17.5%. With `O=C(OCCN1CCOCC1)C1(c2ccccc2)CCCCC1` the activity change, negative = inhibition was inconclusive: -12.2%. In the case of `CCCCC(=O)OCC(=O)Nc1ccc(OC(F)F)cc1`, the “activity change, negative = inhibition” value is reported as inactive: 0.567%. In the case of `CCC(C)c1ccc(O)c(NC(=O)c2ncn[nH]2)c1` (configuration not stated), the “activity change, negative = inhibition” value is reported as inactive: -4.51%. For `COCCn1c(=O)c(C)nc2cnc(OCc3ccccc3)nc21`, the Potency was inconclusive: 12.6 µM [rising, partial curve]. For `Cc1nn(-c2ccccc2)c2nc(N)c(C#N)c(-c3ccc(F)cc3)c12`, the Potency was active: 2 µM. With `Cc1ccc(C)c2[nH]c(=O)c(CN(Cc3ccc4c(c3)OCO4)Cc3nnnn3Cc3ccco3)cc12` the “activity change, negative = inhibition” value was inactive: -1.1%. In the case of `COc1ccc(CNc2cc(-c3cccnc3)ncn2)c(OC)c1`, the Potency is reported as inconclusive: 12.6 µM [rising, partial curve]. For `CC1CN(C(=O)Cc2ccc(-c3ccccc3)cc2)CC(C)O1` (configuration not stated), the activity change, negative = inhibition was inconclusive: -3.54%. In the case of `COc1ccc(OC)c(-c2c[n+](=O)c3c(n2[O-])CCCC3)c1`, the activity change, negative = inhibition is reported as inconclusive: 2.99%. For `Cc1cccn2c(=O)c3cc(C(=O)NCCCN4CCCC4=O)n(C)c3nc12`, the Potency was inconclusive: 15.8 µM [rising, partial curve]. With `CCOC(=O)C1C(=O)NC(N2CCN(c3ccccc3)CC2)=NC1c1ccco1` (configuration not stated) the activity change, negative = inhibition was inconclusive: -3.56%. With `Cc1ccc2c(c1)c1ncnc(N3CCOCC3)c1n2C` the Potency was inconclusive: 7.94 µM [rising, partial curve]. For `Cn1c(=O)c2nc(-c3ccc(Cl)cc3Cl)oc2c2ccccc21`, the “activity change, negative = inhibition” value was inactive: 1.14%. In the case of `O=C(NCCc1c[nH]c2ccccc12)C1CCN(c2nnc(N3CCCC3=O)s2)CC1`, the Potency is reported as inconclusive: 31.6 µM [falling, single point]. With `COCCNC(=O)COc1cc(=O)n(C)c2ccccc12` the activity change, negative = inhibition was inconclusive: 14.6%. For `Cn1c(C(=O)OC(C(=O)NC2CCCCC2)c2ccncc2)cc2sccc21` (configuration not stated), the “activity change, negative = inhibition” value was inactive: -2.23%. With `COCCn1c(=O)c(-c2cccs2)nc2cnc(N3CCNCC3)nc21` the Potency was inconclusive: 1 µM [rising, partial curve]. In the case of `O=C(c1csnn1)N1CCC2(CCCN(Cc3ccccc3)C2)CC1`, the “activity change, negative = inhibition” value is reported as inactive: 0.159%. With `CCN1CCC(C(=O)NC2CCCC2)(N(Cc2cccs2)C(=O)Cn2nnc3ccccc32)CC1` the “activity change, negative = inhibition” value was inactive: -0.651%. With `Cc1cc(C)c(S(=O)(=O)NCc2cn3c(C)csc3n2)cc1C` the “activity change, negative = inhibition” value was inactive: 2.72%. With `Cn1c(=O)c2c(SC3CCCC3)nc(CC(C)(C)C)nc2n(C)c1=O` the “activity change, negative = inhibition” value was inactive: -2.28%. In the case of `CC[C@@]1([N+](=O)[O-])C[C@H]2C=C[C@@H]1C2`, the activity change, negative = inhibition is reported as inactive: 4.11% [at 7.6 µM]. With `Cn1c(SCC(=O)Nc2cccc(NC(=O)c3cccs3)c2)nnc1-c1ccncc1` the activity change, negative = inhibition was inconclusive: -29.3%. For `CC(C)(C)n1nnnc1C(c1cccs1)N(Cc1ccccc1)Cc1ccco1` (configuration not stated), the activity change, negative = inhibition was inconclusive: -18%. With `COc1c(C)cc(Br)cc1C(=O)Nc1cccc(-c2nc3ncccc3o2)c1` the Potency was inconclusive: 2.51 µM [rising, single point]. In the case of `COc1cc(C2=NOC(C(=O)N3CCOCC3)C2)cc(OC)c1OC` (configuration not stated), the Potency is reported as inconclusive: 25.1 µM [rising, single point]. With `Cn1c(/C(C#N)=C(\O)c2ccc(S(=O)(=O)N3CCCCC3)cc2)nc2ccccc21` the activity change, negative = inhibition was inconclusive: 1.82%. With `COc1ccccc1N(CC(=O)Nc1ccccc1C(=O)NC(C)C)S(C)(=O)=O` the activity change, negative = inhibition was inconclusive: -23.5% [at 7.6 µM]. In the case of `CCC(=O)[C@@]1(C)[C@H](C)C[C@@H]2[C@@H]3CCC4=CC(=O)C=C[C@@]4(C)[C@H]3[C@H](O)C[C@]21C`, the “activity change, negative = inhibition” value is reported as inactive: -3.04% [at 17.1 µM]. In the case of `Cc1cccc2cc(CN(Cc3cccs3)C3(c4nnnn4C4CCCC4)CCCC3)c(=O)[nH]c12`, the Potency is reported as inconclusive: 1 µM [falling, single point]. In the case of `CCc1sc(C(=O)NC)cc1Br`, the Potency is reported as inconclusive: 0.02 µM [rising, full curve, poor fit]. In the case of `COc1ccc(C(=O)Nc2ccc(Cl)cn2)cc1Cl`, the activity change, negative = inhibition is reported as inconclusive: -2.59%. With `c1cncc(-c2nccc(NCc3cccs3)n2)c1` the Potency was active: 2.51 µM. For `Cc1cccc(-n2nnc(C(=O)Nc3ccc(F)cc3)c2N)c1`, the Potency was inconclusive: 0.0251 µM [falling, full curve, poor fit]. With `CCOC(=O)Nc1c(C(=O)OC)[nH]c2cccc(OC)c12` the “activity change, negative = inhibition” value was inactive: 19%. For `O=C(Nc1ccc(S(=O)(=O)N2CCc3ccccc3C2)cc1)C1CCCO1` (configuration not stated), the Potency was inconclusive: 2 µM [falling, full curve]. For `CCOc1ccccc1CN1C(=O)c2ccccc2C1C(=O)NCC1CCCO1` (configuration not stated), the activity change, negative = inhibition was inconclusive: -0.488%. For `CC(NC(=O)CSc1ncnc2nc[nH]c12)c1ccccc1` (configuration not stated), the activity change, negative = inhibition was inconclusive: -8.38% [at 7.6 µM]. In the case of `CS(=O)(=O)N1CCC(C(=O)NCCN2CCN(Cc3ccccc3)CC2)CC1`, the activity change, negative = inhibition is reported as inconclusive: 11.9%. In the case of `O=c1c(-c2cc(F)cc(F)c2)nc2cnc(N3CCNCC3)nc2n1C1CC1`, the Potency is reported as inconclusive: 0.398 µM [rising, full curve]. With `O=C(NCc1ccco1)C(Cc1ccccc1)NS(=O)(=O)c1cccc2nsnc12` (configuration not stated) the Potency was inconclusive: 0.251 µM [falling, full curve, poor fit]. With `Nc1nc(N)c2sc3nc4c(cc3c2n1)CCC4` the Potency was inconclusive: 12.6 µM [rising, partial curve]. For `COCCNC(C)C(=O)C12CC3CC(CC(C3)C1)C2` (configuration not stated), the activity change, negative = inhibition was inconclusive: 18.8%. In the case of `COC(=O)[C@@]1(Cc2ccc(OC)cc2)[C@H]2c3cc(C(=O)N4CCCC4)n(CCc4ccc(O)c(O)c4)c3C[C@H]2CN1C(=O)c1ccccc1`, the Potency is reported as inconclusive: 25.1 µM [rising, single point]. With `O=c1oc(-c2cccs2)nc2sc3c(c12)CCCCC3` the activity change, negative = inhibition was inconclusive: 29.9%. In the case of `c1coc(-c2nc(-c3ccncc3)no2)c1`, the activity change, negative = inhibition is reported as inconclusive: -19.8%. With `CCC(NS(=O)(=O)c1ccc(C)cc1)C(=O)N1CCC2(O)CCCCC2C1` (configuration not stated) the activity change, negative = inhibition was inconclusive: -1.05%. With `Cc1cccc2nc(Cn3c(=O)n(CCC(=O)NCc4ccco4)c(=O)c4ccccc43)cc(=O)n12` the Potency was inconclusive: 2 µM [rising, partial curve]. With `O=C(c1ccncc1)N1CCC2(CC1)CN(Cc1cc(C(F)(F)F)cc(C(F)(F)F)c1)C2` the activity change, negative = inhibition was inconclusive: 1.18%. In the case of `O=[n+]1c2c(n([O-])c3c1CCC3)CCCC2`, the Potency is reported as inconclusive: 15.8 µM [rising, partial curve]. With `COc1cc(OC)c2cc(-c3ccncc3)cnc2c1` the Potency was active: 5.01 µM. In the case of `O=C(O)CCSc1nc2ccccc2s1`, the “activity change, negative = inhibition” value is reported as inactive: -4.16%. In the case of `O=C(COC(=O)c1ccc(Oc2ccccc2)cc1)Nc1nnc(-c2ccccc2)o1`, the Potency is reported as inconclusive: 25.1 µM [falling, single point]. With `c1ccc(-n2ncc3c(N4CCN(c5ccccn5)CC4)nc(N4CCCCC4)nc32)cc1` the activity change, negative = inhibition was inconclusive: -8.44%. In the case of `COCCNC(=O)c1ccc2ccccc2n1`, the “activity change, negative = inhibition” value is reported as inactive: -19.6%. For `CCn1c(=O)c(C(=O)CN2CCOCC2)c(N)n(Cc2ccccc2)c1=O`, the Potency was inconclusive: 0.0501 µM [falling, full curve, poor fit]. In the case of `CCOC(=O)c1c(C)n(C)c2ccc(OCC(O)CN3CCN(C)CC3)cc12` (configuration not stated), the Potency is reported as inconclusive: 25.1 µM [rising, single point]. In the case of `O=C1OC(Nc2ccc(F)cc2F)c2ccccc21` (configuration not stated), the “activity change, negative = inhibition” value is reported as inactive: -1.18%. In the case of `O=C(Nc1ccc2c(c1)OCO2)c1cccc2c1C(=O)N(C1CCCCC1)C2`, the “activity change, negative = inhibition” value is reported as inactive: -8.99%. With `CC(C)CN1CC[C@@]2(CCCN(C(=O)c3cc(C(F)(F)F)cc(C(F)(F)F)c3)C2)C1` the “activity change, negative = inhibition” value was inactive: -9.38%. In the case of `CCOc1ncccc1C(=O)OCC(=O)Nc1ncc(C(F)(F)F)cc1Cl`, the activity change, negative = inhibition is reported as inconclusive: 2.21%. In the case of `O=C(CCN1C(=O)c2ccccc2C1=O)N1CCN(C(=O)c2ccccc2)CC1`, the “activity change, negative = inhibition” value is reported as inactive: 17.6%. In the case of `Cn1c(SCC(=O)Nc2ccccc2)nc(O)cc1=O`, the activity change, negative = inhibition is reported as inconclusive: -8.85% [at 7.6 µM]. With `Cc1cc(NC(=O)CSc2ccc3nnc(-c4cccc(F)c4)n3n2)no1` the activity change, negative = inhibition was inconclusive: 1.26%. In the case of `O[C@@H]1CC[C@H]2Cc3ccccc3N=C21`, the “activity change, negative = inhibition” value is reported as inactive: -15.8%.
Potency is the fitted concentration of half-maximal effect; tags give direction and shape of the fitted curve.
